The list shows a part of the results. These are further read-outs of the screen, such as a control signal, another cell line or another target. No call is given for them.
Tests used:
Test in all cases: Primary Screen for Target Class Profiling of Small Molecule Inhibitors of Methyltransferases
[1] = target: Glycine N-methyltransferase (Homo sapiens) (UniProt Q14749); details: purified enzyme, MTase-Glo SAH luminescence; measured here: GNMT inhibition; at 40 µM; stronger effect = lower value
Method in brief: (§1)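 Each enzyme was assayed with SAM and its substrate. SAH formation detected by MTase-Glo luminescence; single-point 40 uM screen[…].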

[2] = target: Guanidinoacetate N-methyltransferase (Homo sapiens) (UniProt Q14353); details: purified enzyme, MTase-Glo SAH luminescence; measured here: GAMT inhibition; at 40 µM; stronger effect = lower value
Method in brief: as §1

[3] = target: Histamine N-methyltransferase (Homo sapiens) (UniProt P50135); details: purified enzyme, MTase-Glo SAH luminescence; measured here: HNMT inhibition; at 40 µM; stronger effect = lower value
Method in brief: as §1

[4] = target: Nicotinamide N-methyltransferase (Homo sapiens) (UniProt P40261); details: purified enzyme, MTase-Glo SAH luminescence; measured here: NNMT inhibition; at 40 µM; stronger effect = lower value
Method in brief: as §1

[5] = target: Phenylethanolamine N-methyltransferase (Homo sapiens) (UniProt P11086); details: purified enzyme, MTase-Glo SAH luminescence; measured here: PNMT inhibition; at 40 µM; stronger effect = lower value
Method in brief: as §1
% is set by controls: 0 for no effect and ±100 for the full control effect.

Row | Structure (SMILES) | activity change, negative = inhibition [1] [%] | activity change, negative = inhibition [2] [%] | activity change, negative = inhibition [3] [%] | activity change, negative = inhibition [4] [%] | activity change, negative = inhibition [5] [%]
1 | CC1OC2OC(=O)C3(C)CC4=C(CO)C5=C(CC(=O)C4(C)C(C1=O)C23)C(C)(C)OC(=O)C5 (stereo not given) | -3.88 | -3.69 | 2.46 | -15.5 | -9.28
2 | CC(C)(C)CC(=O)N1CC[C@@H](CC(=O)O)[C@@H](CCN2CCN(c3ccccn3)CC2)C1 | -0.629 | -5.68 | -2 | -5.06 | -2.53
3 | CCCC(=O)N(c1ccc(OCC)cc1)S(=O)(=O)c1ccc2c(c1)n(C)c(=O)n2C | -0.311 | 3.84 | 0.381 | -10.5 | 0.71
4 | CN[C@H](CNC(=O)N1CCC[C@@H]([C@@H](OCCNC(=O)OC)c2cccc(Cl)c2)C1)C[C@H]1CCCOC1 | 5.72 | 11 | 7.51 | -5.68 | 6.18
5 | COc1cc2ncnc(Nc3cccc(I)c3)c2cc1OC | -85.9 | -47.3 | -63.5 | -54.6 | -62.7
6 | Cc1noc(C)c1[S+](=O)([O-])N1CCCC1C(=O)N1CCC(N2CCCC2=O)CC1 (stereo not given) | -0.274 | 3.08 | 1.96 | 1.44 | -1.49
7 | Cc1ccccc1Cn1nc2n(CC(C)C)c(=O)c3ccc(C(=O)NC4CCCCC4)cc3n2c1=O | 8.99 | 5.82 | 10.9 | 9.28 | 8.75
8 | Cc1ccc(Cn2c(=O)c3ccccc3n3c(=O)n(CC(=O)Nc4cc(F)ccc4F)nc23)cc1 | 3.21 | 5.87 | 0.555 | 0.942 | 4.86
9 | NC1=NCC2c3ccccc3Cc3ccccc3N12 (stereo not given) | 2.59 | 7.46 | -30.3 | -15.9 | -4.39
10 | C=CCn1c(=O)c2ccc(C(=O)NC(C)CC)cc2n2c(=O)n(CC(=O)NC(C)C)nc12 (stereo not given) | -1.37 | 3.46 | -3.4 | -9.72 | -4.61
11 | Cc1ccc(CCNC(=O)Cn2c(=O)oc3cc(S(=O)(=O)NCc4ccccc4)ccc32)cc1 | 5.11 | 0 | 2.35 | -0.541 | 0.143
12 | CC(C)OCCCn1c(=O)c2ccccc2n2c(=O)n(CC(=O)NCc3ccc(Cl)cc3)nc12 | 5.2 | 1.51 | 7.58 | 2.01 | 4.96
13 | CC(c1ccon1)N(C)C(=O)c1csc2nc(-c3cccc(C(F)(F)F)c3)cn12 (stereo not given) | -11.6 | -9.75 | -7.79 | -17.6 | -22.4
14 | Cc1ccc(NS(=O)(=O)c2ccc3[nH]c(=O)[nH]c3c2)c(Cl)c1 | 2.81 | 0 | 2.2 | -6.65 | -14.1
15 | Cc1cccc(N2CCN(C(=O)CCc3nnc4n(CCC(C)C)c(=O)c5ccccc5n34)CC2)c1C | -11.7 | -1.93 | -14.3 | -37.7 | -16
16 | COC(=O)[C@@H]1Cc2ncn(Cc3ccc(Cl)cc3)c2CN1Cc1ccc(N(C)C)cc1 | -9.62 | -3.38 | -1.91 | -6.44 | 1.8
17 | CCCn1c(=O)c2ccc(C(=O)NC(C)CC)cc2n2c(=O)n(Cc3c(F)cccc3Cl)nc12 (stereo not given) | 4.79 | 1.19 | 6.94 | 7.82 | 6.79
18 | CCN1C(=O)c2cc(C(=O)N3CCN(c4cc(C)ccc4C)CC3)nn2CC1(C)C(=O)NC1CCCC1 (stereo not given) | 1.85 | 0.313 | 3.02 | 1.74 | 4.11
19 | CC/C=C/CC1=C(CCCCC(CCC(=O)O)OC(C)=O)CCC1=O (stereo not given) | -1.21 | -13.6 | 4.79 | -27.6 | -10.9

Row | Structure (SMILES) | activity change, negative = inhibition [1] [%] | activity change, negative = inhibition [2] [%] | activity change, negative = inhibition [3] [%] | activity change, negative = inhibition [4] [%] | activity change, negative = inhibition [5] [%]
20 | CON(C)C(=O)N1N=C(c2cc(F)ccc2F)S[C@@]1(CCCN)c1ccccc1 | -0.042 | 3.58 | -1.91 | -15.3 | -6.05
21 | CC(=O)N1CCC(N[C@@H]2CO[C@H](CNS(C)(=O)=O)[C@H]2O)CC1 | -5.21 | -7.56 | -2.36 | -10.1 | -10.2
22 | Cc1nc(C2CC(O)C2)cc(N2CCC(OCc3cccnc3)CC2)n1 (stereo not given) | -1.48 | -1.42 | -3.33 | -2.67 | 0.93
23 | CC1(C(=O)NC2CCCCCC2)Cc2ccccc2C(=O)N1Cc1ccccc1Cl (stereo not given) | -2.9 | 1.4 | -0.506 | 3.71 | -1.45
24 | O=C(Cn1ccc2cc(S(=O)(=O)N3CCCCC3)ccc21)NCCN1CCOCC1 | 7.43 | 2.33 | 2.06 | 4.99 | 0.852
25 | CC(C)NC(=O)N1Cc2c(sc3c2CCCC3)-n2cccc2C1c1ccccc1 (stereo not given) | -11.9 | 2.19 | 3.63 | -18 | -3.1
26 | CC(CN1C(=O)c2ccc(-c3ccco3)n2CC1(C)C(=O)NC1CCCCC1)c1ccccc1 (stereo not given) | -7.16 | 2.84 | -1.52 | -12.5 | -7.46
27 | CCOC(=O)C1CCCN(c2nc3c(-c4cccc(F)c4)nnn3c3ccc(Cl)cc23)C1 (stereo not given) | 2.58 | 5.26 | 7.47 | 8.19 | -0.629
28 | COc1ccc2cc3n(c2c1)CC(C)(C(=O)NC1CCCC1)N(c1ccccc1OC)C3=O (stereo not given) | 0.316 | 2.04 | 3.23 | -5.23 | -0.302
29 | CC(C)(C)c1cc(C(=O)O)c(NC(=O)Nc2ccc3[nH]ncc3c2)s1 | -6.27 | 1.29 | 7.37 | -17.7 | 5.15
30 | CCOC(=O)c1cc2n(n1)CC(C)(C(=O)NC1CCCC1)N(c1cccc(CC)c1)C2=O (stereo not given) | -1.34 | 2.61 | -1.33 | -2.72 | -2.87
31 | O=C(c1ccc(-c2noc(C3CC3)n2)cc1)N1CCC2(CCOCC2)CC1 | -7.07 | -11.4 | -3.9 | -15.6 | -8.95
32 | CSCC(=O)NCCC[C@H](NC(=O)[C@@H]1[C@@H](NC(=O)NC2CCCCC2)CCN1C(=O)CSC)C(N)=O | -5.75 | -6.85 | -6.6 | -10.1 | -0.231
33 | Cc1nc2c3ccccc3n3c(CCCC(=O)N4CCN(Cc5ccccc5)CC4)nnc3n2n1 | -29.2 | 0.074 | 5.17 | 3.64 | 1.87
34 | O=c1[nH]c2ccc(S(=O)(=O)NC3CCN(Cc4ccccc4)CC3)cc2[nH]1 | 3.83 | 0 | -2.27 | -6.24 | -2.48
35 | CN(C)c1ccc(-c2nc3ncc(Cl)c(N4CCN(CC(=O)Nc5nccs5)CC4)c3[nH]2)cc1 | 5.16 | -8.65 | 0.942 | -23.6 | -3.85
36 | O=C1CCCC2=C1C(c1[nH]ncc1Cl)N=C(Nc1nc3ccccc3o1)N2 (stereo not given) | -7.72 | 4.14 | 10 | -40 | 9.1
37 | COCCN1C(=O)c2nc3ccccc3n2CC1(C)C(=O)NC1CCCCC1C (stereo not given) | 3.75 | 1.35 | 0.357 | 10.9 | 1.42
38 | CC(C)Cn1c(=O)c2ccccc2n2c(SCc3cccc(Cl)c3)nnc12 | -1.86 | 0 | 4.89 | -11 | 5.04
